From PubChem BioAssay AID504466 (National Center for Advancing Translational Sciences (NCATS), 2011)
In all, about 330,000 compounds went through this assay and about 4,200 (1.3%) were called active. The shares of active, inactive and inconclusive entries below differ from those in the screen. The call rests on the fitted dose curve; in most records, active means well fitted activation curve with a large enough effect; inconclusive means small, poorly fitted or top-dose-only effect; inactive means no such curve, though single readings can be large or run the other way. A potency beside an inconclusive call is a rough fit, not a confirmed value.

Experiment: qHTS screen for small molecules that induce genotoxicity in human embryonic kidney (HEK293T) cells expressing luciferase-tagged ELG1; further: nearly all actives have a fitted effect of over 60% in size
Conditions: HEK293T ELG1-luciferase reporter, luminescence, 16 h; series mostly up to 46 µM
Method in brief: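 DMSO vehicle served as control against compound-treated ELG1-luciferase HEK293T cells; exposure lasted 16 hr at 37 °C and 5% CO2, followed by ONE-Glo luminescence detection after 30 min.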
Potency means the concentration at half of the fitted maximal effect; tags describe the fitted curve by direction and shape.

Row | SMILES | Potency
1 | CCOC(=O)c1c(C)[nH]c(C(=O)NNC(=O)c2ccccc2F)c1C | inconclusive: 5.17 µM [activator, full curve]
2 | CCCC(=O)Nc1sc2c(c1C(=O)Nc1ccccn1)CCCC2 | inactive
3 | CCCN=C1N(C)C[C@@H]2[C@@H]3C(=O)N(Cc4ccccc4)C(=O)[C@@H]3[C@](CC)(C(=O)OC)N12 | inactive
4 | Cc1ccc2cc(NC(=O)c3ccccc3)ccc2n1 | active: 1.83 µM
5 | COc1cccc(OCc2cc(C(=O)N(C)CCOc3ccc(C)cc3)no2)c1 | inconclusive: 3.66 µM [activator, full curve, poor fit]
6 | Cc1cccc(NC(=O)c2cc(-c3cc(C)ccc3O)n[nH]2)c1 | inconclusive: 2.31 µM [activator, full curve]
7 | O=C(NCCC1CCCCN1S(=O)(=O)c1cccs1)C(=O)Nc1cccc(F)c1 (configuration not stated) | inactive
8 | CCn1cnc2cc(NCc3ccc(Cl)cc3)ccc21 | inconclusive: 7.3 µM [activator, partial curve, poor fit]
9 | N#C/C(=N\Nc1cccc(F)c1)C(=O)C1CC1 | inactive
10 | CN(C(=O)c1ccc2c(Cl)c3c(nc2c1)CCC3)c1ccccc1 | inconclusive: 16.4 µM [activator, partial curve, poor fit]
11 | CCc1ccc(NC2=NCC(c3ccccc3)S2)cc1 (configuration not stated) | inconclusive: 9.2 µM [activator, partial curve]
12 | CCOc1ccc(NC(=S)NC(=O)c2ccco2)cc1 | inactive
13 | CC(=O)Nc1nc(COc2ccc3ccccc3c2)cs1 | inconclusive: 8.2 µM [activator, partial curve]
14 | O=C(Nc1ccc2c(c1)OCO2)C1CC(c2c(F)cccc2Cl)=NO1 (configuration not stated) | inconclusive: 9.2 µM [activator, partial curve]
15 | CCOc1ccc(-n2c(=O)c3c(C)c(C)sc3n(CC(=O)NCc3ccco3)c2=O)cc1 | inconclusive: 16.4 µM [activator, partial curve, poor fit]
16 | COc1ccc(OC(=O)c2cccc([N+](=O)[O-])c2)c(C(=O)/C=C/c2cccs2)c1 | inconclusive: 12.6 µM [activator, partial curve, poor fit]
17 | COc1ccc(NC(=S)NC(=O)Cc2ccccc2)cc1 | inconclusive: 18.3 µM [activator, partial curve, poor fit]
18 | O=C(c1cc2ccccc2s1)N1CCOCC1 | inactive
19 | CC(C)(CNC(=O)c1ccc(-c2ccccc2Cl)o1)N1CCOCC1 | active: 13 µM
20 | CCOc1ccc(N=C(/C(C(=O)C(=O)N2CCOCC2)=C(\O)c2ccccc2)c2ccccc2)cc1 | inconclusive: 6.51 µM [activator, full curve, poor fit]
21 | Fc1ccccc1CSc1ccc(-c2ccco2)nn1 | inconclusive: 4.11 µM [activator, single point]
22 | Nc1ncnc(Nc2cccc(Cl)c2Cl)n1 | inconclusive: 18.3 µM [activator, partial curve, poor fit]
23 | O=c1cc(-c2ccccc2)[nH]c2ccc(F)cc12 | inconclusive: 16.4 µM [activator, partial curve, poor fit]
24 | CC(=O)c1ccc(N2Cc3ccccc3C2)cc1 | inconclusive: 4.61 µM [activator, single point]

Row | SMILES | Potency
25 | Cc1sc2nc(C3CC3)nc(N3CCN(C(=O)c4ccc(Cl)cc4)CC3)c2c1C | inactive
26 | Cc1ccn2cc(-c3ccc(NC(=O)c4ccco4)cc3)nc2c1 | inconclusive: 2.31 µM [activator, full curve]
27 | N#C/C(=C\c1ccc(N2CCOCC2)o1)C(=O)NC1CCCCC1 | inactive
28 | Cn1c(=O)n(C)c2cc(NC(=O)Cc3ccccc3[N+](=O)[O-])ccc21 | inconclusive: 16.4 µM [activator, partial curve, poor fit]
29 | O=C(O)c1cccc(NC2=Nc3cccc4cccc2c34)c1 | active: 7.3 µM
30 | CCN(C(=O)COC(=O)/C=C/c1ccco1)C1CCCCC1 | inactive
31 | Cc1cccc(-c2nc3ccccc3c(=O)[nH]2)c1 | inconclusive: 11.6 µM [activator, partial curve]
32 | COc1cc2c(cc1OC)CN(C(=O)CN1CCN(S(=O)(=O)c3ccc(C)c(C)c3)CC1)CC2 | inactive
33 | Cc1cc(C)nc(Nc2n[nH]c(-c3ccccc3Cl)n2)n1 | inconclusive: 20.6 µM [activator, partial curve]
34 | CCOC(=O)c1c(C)nc(-c2ccccc2)nc1NC(=O)CC | inconclusive: 29.1 µM [activator, partial curve, poor fit]
35 | CC(C)[C@@H](CO)N(C)S(=O)(=O)c1ccccc1Br | inactive
36 | COc1cc(CC(=O)N(c2ccccc2)c2nc(C)cs2)cc(OC)c1OC | inactive
37 | COc1ccccc1N1CCN(C(=O)c2cc(=O)c3cc(C)cc(C)c3o2)CC1 | inconclusive: 1.64 µM [activator, full curve, poor fit]
38 | Cc1ccc(NC(=O)c2sccc2C)cc1[N+](=O)[O-] | inconclusive: 20.6 µM [activator, partial curve]
39 | O=C(NNC(=O)c1ccccc1[N+](=O)[O-])c1ccc(NC(=O)c2ccccc2)cc1 | inconclusive: 29.1 µM [activator, single point]
40 | Nc1ccccc1SCC(=O)Nc1ccc2c(c1)OCO2 | inactive
41 | NC(=O)c1cc(-c2csc(-c3cccnc3)n2)ccc1O | inactive
42 | CCOc1ccc(-c2cc(C(=O)N3CCCC3)c3ccccc3n2)cc1 | inconclusive: 4.11 µM [activator, partial curve, poor fit]
43 | Cc1cccn2c(=O)c3cc(C(=O)NC4CCCC4)c(=N)n(CCCN4CCOCC4)c3nc12 | inactive
44 | Cc1cccc(C)c1OCc1cc(C(=O)N2CCN(c3ccc(F)cc3)CC2)no1 | inconclusive: 2.59 µM [activator, partial curve]
45 | O=c1cc(-c2ccc(Cl)cc2)oc(=O)[nH]1 | inactive
46 | COc1ccc(O)cc1 | inactive
47 | Cn1c(=O)n(C)c2cc(NC(=O)CCl)ccc21 | inconclusive: 4.11 µM [activator, partial curve, poor fit]
